“And” between values parts separate entries of the source, which are not always exact repeats. Equal values may be shown once. The campaign covered roughly 110,000 compounds. About 230 (0.21%) showed an effect of 50% or more. The list shows a part of the results.

This is an account of results in PMC6919601, “Identification of Plasmodium dipeptidyl aminopeptidase allosteric inhibitors by high throughput screening” (PLoS ONE, 2019).
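Note: 30 min substrate incubation versus DMSO and 10 µM JCP410 controls.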

Chain of DPAP1 (Q8IIJ9 whole entry, looked up): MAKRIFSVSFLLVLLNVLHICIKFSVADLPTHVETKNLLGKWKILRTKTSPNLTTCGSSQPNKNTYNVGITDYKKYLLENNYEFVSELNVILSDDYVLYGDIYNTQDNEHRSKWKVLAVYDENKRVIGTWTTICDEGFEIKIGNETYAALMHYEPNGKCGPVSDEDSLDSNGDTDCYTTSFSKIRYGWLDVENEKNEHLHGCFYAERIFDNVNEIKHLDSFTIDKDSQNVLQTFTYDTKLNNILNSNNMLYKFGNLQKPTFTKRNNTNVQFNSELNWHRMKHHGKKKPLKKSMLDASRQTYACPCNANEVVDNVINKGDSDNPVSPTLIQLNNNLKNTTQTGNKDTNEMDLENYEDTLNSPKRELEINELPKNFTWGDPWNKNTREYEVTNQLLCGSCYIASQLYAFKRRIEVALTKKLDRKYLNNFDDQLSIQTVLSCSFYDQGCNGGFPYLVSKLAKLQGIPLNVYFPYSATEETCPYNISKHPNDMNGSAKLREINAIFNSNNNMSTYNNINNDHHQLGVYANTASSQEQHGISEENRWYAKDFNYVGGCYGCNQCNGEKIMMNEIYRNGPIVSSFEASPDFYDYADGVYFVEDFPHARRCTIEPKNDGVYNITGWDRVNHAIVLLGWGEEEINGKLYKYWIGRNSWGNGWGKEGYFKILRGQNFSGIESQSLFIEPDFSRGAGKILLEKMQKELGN

This test addresses DPAP1 (Plasmodium falciparum, UniProt Q8IIJ9). As to the kind of experiment: primary screen, percent inhibition; read by cleavage of a fluorogenic dipeptide substrate; higher = more effect of the substance. On the set-up: species or system P. falciparum D10 trophozoite lysates; single well.
Regarding `Cc1ccc(CN(CC(=O)N2CCc3ccccc3C2)S(=O)(=O)c2ccc(C)cc2)cc1`, the “% Inhibition @ 10 uM” value is listed as -3.18%.

In the case of `COC(=O)C1=CN(C(C)c2ccccc2)C=C(C(=O)OC)C1c1ccc(C(=O)OC)cc1` (stereo not drawn), the “% Inhibition @ 10 uM” value was 2.38%.

With `COc1ccc(C(=O)N2CCn3cccc3C2c2ccccc2)cc1OC` (stereo not drawn), the “% Inhibition @ 10 uM” value is 0.776%.

As to `COc1ccc(Oc2nc3c(C)cccn3c(=O)c2/C=C(\C#N)C(=O)NC2CCS(=O)(=O)C2)cc1` (stereo not drawn), the “% Inhibition @ 10 uM” value stood at 2%.

As to `CCOc1ccc(/C=C/[N+](=O)[O-])cc1`, the “% Inhibition @ 10 uM” value is given as -6.22%.

Take `N=C1/C(=C/c2ccc(O)cc2)C(=O)N=C2SN=C(S(=O)(=O)Cc3ccccc3)N12`: the “% Inhibition @ 10 uM” value is 5.06%.

As for `CN(C(=O)Cn1cc(S(=O)(=O)Cc2ccccc2)c2ccccc21)C1CCCCC1`, the “% Inhibition @ 10 uM” value is given as -4.05%.

Take `O=C(O)CCCCCN1C(=O)C(O)=C(C(=O)c2ccc(F)cc2)C1c1ccc2c(c1)OCO2` (stereo not drawn): the “% Inhibition @ 10 uM” value is on record as -7.58%.

Consider `CCCc1[nH]nc2c1/C(=N\OCC)CC(C)(C)C2`, for which the “% Inhibition @ 10 uM” value was -2.55%.

Turning to `O=C(O)c1ccc(CNC(=O)c2ccc(NC(=O)c3ccco3)cc2)cc1`, the “% Inhibition @ 10 uM” value is given as -3.92%.

For `COCc1[nH]nc2c1C(c1cc(OC)c(O)c(OC)c1)C(C#N)=C(N)O2` (stereo not drawn), the “% Inhibition @ 10 uM” value is on record as -2.77%.

`COC(=O)c1c(NC(=O)C(C)C)sc2c1CCCC2`: the “% Inhibition @ 10 uM” value is reported as -1.2%.

For the compound `COc1cc(C2C3=C(O)CCCC3=NC3=C2C(=O)CCC3)cc(Cl)c1OCC(=O)O` (stereo not drawn), the “% Inhibition @ 10 uM” value is listed as 2.45%.

In the case of `Cc1cn([C@H]2C[C@H]3OC[C@H]3O2)c(=O)[nH]c1=O`, the “% Inhibition @ 10 uM” value is reported as -4.4%.

With `CCCS(=O)(=O)NCc1cn2cccc(C)c2n1`, the “% Inhibition @ 10 uM” value is given as -5.37%.

Regarding `CC12CC3CC(Br)(C1)CC(C(=O)O)(C3)C2` (stereo not drawn), the “% Inhibition @ 10 uM” value is 1.27%.

As for `COc1ccc(S(=O)(=O)N(C)CC(=O)Nc2cccc(SC)c2)cc1OC`, the “% Inhibition @ 10 uM” value is reported as -2.78%.

On to `Cc1nnc(SCC(=O)NC2CCCCC2)nc1O`, for which the “% Inhibition @ 10 uM” value is -3.12%.

Regarding `COc1ccc(C2=NS(=O)(=O)N(C)C(C(=O)NCc3ccc4c(c3)OCO4)=C2)cc1OC`, the “% Inhibition @ 10 uM” value is -1.06%.

Turning to `CNc1ncnc2c1C(c1ccc(Br)cc1)c1c(NC)ncnc1O2`, the “% Inhibition @ 10 uM” value was 0.484%.

In the case of `O=C(NCc1ccc2c(c1)OCO2)c1ccc2c3c(cccc13)CC2`, the “% Inhibition @ 10 uM” value was -5.3%.

Regarding `CC1CN(C)C(C)CC1OC(=O)C(c1ccccc1)c1ccccc1` (stereo not drawn), the “% Inhibition @ 10 uM” value was -4.18%.

For `CC(CCc1ccccc1)N1CCC(N2CCCCC2)CC1` (stereo not drawn), the “% Inhibition @ 10 uM” value is reported as -3.8%.

Turning to `CCCCCCc1ccc(C2(C)CC(C)(C)N(C(C)=O)c3ccccc32)cc1` (stereo not drawn), the “% Inhibition @ 10 uM” value was 4.26%.

For the compound `Cc1ccc(S(=O)(=O)N(C)CC(=O)N2CCCCCC2)cc1`, the “% Inhibition @ 10 uM” value was 0.746% and 3.56%.

On to `Cc1cccc(C)c1NC(=O)c1cc([N+](=O)[O-])ccc1C(=O)O`, for which the “% Inhibition @ 10 uM” value was determined as 2.23%.

On to `Cc1cc(C)c2c(CC(=O)NCCc3ccccc3)coc2c1`, for which the “% Inhibition @ 10 uM” value is -2.28%.

Consider `CCc1ccc(C2c3c(oc4ccccc4c3=O)C(=O)N2c2nc(C)c(C)s2)cc1` (stereo not drawn), for which the “% Inhibition @ 10 uM” value is -1.86%.

Take `Cc1ccc(NC(=O)CSCc2ccc(F)cc2)cc1`: the “% Inhibition @ 10 uM” value is 0.722%.

`COc1ccc(C2C(=O)c3ccccc3C2=O)c(OC)c1`: the “% Inhibition @ 10 uM” value is recorded as -3.58%.

For the compound `C=CCOc1ccc(Cl)cc1CNCCCO`, the “% Inhibition @ 10 uM” value is given as 0.188%.

`CCOc1cccc2cc(-c3csc(NC(=O)CCC(=O)NC4CCC(C)CC4)n3)c(=O)oc12` (stereo not drawn): the “% Inhibition @ 10 uM” value came out at 3.21%.

For `CCCCOc1ccc(N2C(=O)CC(N3CCN(c4ncccn4)CC3)C2=O)cc1` (stereo not drawn), the “% Inhibition @ 10 uM” value is reported as -1.98%.

As for `CCC(=O)NS(=O)(=O)c1cccnc1Nc1ccc(Cl)cc1`, the “% Inhibition @ 10 uM” value is given as 1.94%.

Turning to `Cc1cccc(C)c1NC(=O)c1cnoc1C`, the “% Inhibition @ 10 uM” value was 6.61%.

As for `COCC(C)NC(=O)c1cc(-c2ccccc2F)no1` (stereo not drawn), the “% Inhibition @ 10 uM” value is given as -5.11%.

Turning to `Oc1ccc(/C=N/CC2COc3ccccc3O2)cc1` (stereo not drawn), the “% Inhibition @ 10 uM” value worked out at 0.685%.

For the compound `CCN1CCN(C(=O)c2c(-c3ccccc3Cl)noc2C)CC1`, the “% Inhibition @ 10 uM” value is -0.622%.

As to `O=C1C(c2ccccc2F)N(C2CCCCC2)C(=O)CN1C1CCCCCC1` (stereo not drawn), the “% Inhibition @ 10 uM” value is reported as 2.79%.

For the compound `COc1cccc(C2Nc3ccccc3N=C3CC(c4cccs4)CC(O)=C32)c1OC` (stereo not drawn), the “% Inhibition @ 10 uM” value was 2.32%.

On to `CCOc1ccc(NC(=O)COc2cc(C)ccc2C)cc1`, for which the “% Inhibition @ 10 uM” value is -4.62%.

With `O=C(CCn1c(=O)c2cccn2c2cccnc21)NCCCN1CCC(N2CCCCC2)CC1`, the “% Inhibition @ 10 uM” value worked out at 2.3%.

On to `CC(C(=O)O)n1c2ccccc2c2cnnc(O)c21` (stereo not drawn), for which the “% Inhibition @ 10 uM” value was -0.0309%.

With `C=CCn1c(S)nnc1-c1ccc(Cl)cc1Cl`, the “% Inhibition @ 10 uM” value was found to be 1.27%.

Regarding `CC1Cn2c(nc(=O)c3c2NCN(CCc2ccccc2)C3)S1` (stereo not drawn), the “% Inhibition @ 10 uM” value is -3.34%.

Regarding `Cc1nn(C)cc1CN(C)S(=O)(=O)c1c(C)c(C)c(C)c(C)c1C`, the “% Inhibition @ 10 uM” value was determined as 2.4%.

`CCOC(=O)N1CCN(C(=O)c2cc3c(s2)-c2ccc(Cl)cc2S(=O)(=O)C3)CC1`: the “% Inhibition @ 10 uM” value is on record as 0.953%.

With `CSc1ccc(/C=C(/NC(=O)c2ccccc2)C(=O)N2CCN(C)CC2)cc1`, the “% Inhibition @ 10 uM” value is on record as -1.37%.

For `COC(=O)c1ccc(C2c3c(oc4ccc(F)cc4c3=O)C(=O)N2c2nc(C)c(C(C)=O)s2)cc1` (stereo not drawn), the “% Inhibition @ 10 uM” value is given as -1.33%.

As for `CC(=O)c1c(C)oc2c1cc(O)c1ccccc12`, the “% Inhibition @ 10 uM” value is recorded as 9.02%.

`COc1ccccc1OCCSc1nc(-c2ccccc2)nc2cc(=O)[nH]n12`: the “% Inhibition @ 10 uM” value is reported as -3.04%.

Turning to `CCOC(=O)N1CCN(c2c(NCCc3ccc(Cl)cc3)c(=O)c2=O)CC1`, the “% Inhibition @ 10 uM” value is recorded as -3.21%.

For the compound `CN1CCc2nc(SCc3ccccc3C(F)(F)F)c(C#N)cc2C1`, the “% Inhibition @ 10 uM” value was 5.54%.

As to `CN(Cc1ccccc1)C(=O)C1c2ccccc2C(=O)N(C)C1c1cccs1` (stereo not drawn), the “% Inhibition @ 10 uM” value is -9.05%.

For the compound `Cc1ccc(/C=C/c2nc3ccccc3s2)s1`, the “% Inhibition @ 10 uM” value is reported as -0.0938%.

`COc1ccc(-c2onc(C)c2C)cc1S(=O)(=O)NCc1ccc(OC(C)C)cc1`: the “% Inhibition @ 10 uM” value was 1.73%.

Turning to `COc1cc(/C=C2\NC(=O)N(Cc3ccccc3F)C2=O)ccc1OC(C)C(=O)O` (stereo not drawn), the “% Inhibition @ 10 uM” value is -2.19%.

With `CCN(CC)CCN(CC)Cc1c(F)cccc1F`, the “% Inhibition @ 10 uM” value is given as -0.0648%.

Regarding `O=C1CC(N2CCCCC2)C(=O)N1c1ccc(Cl)c(C(F)(F)F)c1` (stereo not drawn), the “% Inhibition @ 10 uM” value was 6.05%.

Consider `Cc1nn(-c2ccccc2)c2cc(Cl)c([N+](=O)[O-])cc12`, for which the “% Inhibition @ 10 uM” value amounted to 3.15%.

For the compound `CCOc1cc2c(cc1OCC)C(c1ccc(F)c(OC)c1)NCC2` (stereo not drawn), the “% Inhibition @ 10 uM” value was 0.231%.

`CCCOc1cccc(NC(=O)OC2CCN(C)CC2)c1`: the “% Inhibition @ 10 uM” value is -15.4%.

On to `CCc1nc2c(sc3nc(C)cc(COC)c32)c(=O)n1CCN(CC)CC`, for which the “% Inhibition @ 10 uM” value is listed as 7.16%.
